Experimental data as given in US12691262B2, “Method for treatment of airway stricture or stenosis” (Airiver Medical, Inc., priority 2021, dated 2026).
Where “and” joins values, the source holds several entries; their conditions need not be identical. Identical values can stand only once. Like-named read-outs stand apart in the source and are kept apart here.

Key:
[1] = Treatment site (tracheobronchial) paclitaxel pharmacokinetics after drug coated balloon treatment; tissue assayed via HPLC-MS
[2] = in vivo; conditions: sheep, other: drug coated balloon inflated against the airway wall
[3] = Chronic preclinical study: nasal tissue paclitaxel; type: in vivo, sheep
Protocol: Examples 3 and 4 describe acute and chronic studies on the nasal tissue with 5 live sheep. In Examples 3 and 4, the nasal treatment sites were flushed with a solution that was saline or water, the balloon catheter was inserted to the nasal treatment site, the balloon catheter was soaked at the site to hydrate and activate the drug coating at the site of treatment, prior to inflation. The drug coated catheters were inflated at the target site for 3-5 minutes.

**Q.** With CC(=O)O[C@H]1C(=O)[C@@]2(C)[C@H]([C@H](OC(=O)c3ccccc3)[C@]3(O)C[C@H](OC(=O)[C@H](O)[C@@H](NC(=O)c4ccccc4)c4ccccc4)C(C)=C1C3(C)C)[C@]1(OC(C)=O)CO[C@@H]1C[C@@H]2O [paclitaxel] as the molecule, how does the “Total Paclitaxel (in tissue)” value ([1]; 7 d, Trachea treatment site, 18 × 65 balloon, inflation 2 min) read?
**A.** 312 ng and 372 ng and 389 ng

**Q.** And the “AUC at the treated tissue” value ([1]; tracheal and bronchial treated tissue, sheep)?
**A.** 52.3 µg/day/g

**Q.** What about the concentration at 7 d ([2]; trachea treatment site tissue, 12865 ug) of the same molecule?
**A.** 35.4 ng/g

**Q.** What about the Cmax ([2]; treated tracheal and bronchial tissue, 3.5 μg paclitaxel/mm^2 of balloon surface) of the same molecule?
**A.** 6200 ng/g

**Q.** And the concentration at 28 day ([2]; treatment site tissue (tracheobronchial), 3.5 μg paclitaxel/mm^2 of balloon surface)?
**A.** 3.4 ng/g

**Q.** What about the “Total Paclitaxel (in nasal tissue)” value ([3]; 7 d, LT Nasal Tx 3 (anterior and inferior nasal cavity), DCB 12 × 30, 8 atm) of the same molecule?
**A.** 6.50 ng

**Q.** And the “Total Paclitaxel (in nasal tissue)” value ([3]; 7 d, RT Nasal Tx 1 (superior nasal cavity), DCB 6 × 30, 6 atm)?
**A.** 0.201 ng

**Q.** What about the “Total Paclitaxel (in nasal tissue)” value ([3]; 14 d, RT Nasal Tx 1 (superior nasal cavity), DCB 10 × 30) of the same molecule?
**A.** 4.81 ng

**Q.** What about the “Total Paclitaxel (in nasal tissue)” value ([3]; 28 d, LT Nasal Tx 1 (superior nasal cavity), DCB 8 × 30) of the same molecule?
**A.** 0.316 ng

**Q.** And the “Total Paclitaxel (in nasal tissue)” value ([3]; 28 d, RT Nasal Tx 2 (lateral nasal cavity), DCB 8 × 30)?
**A.** 0.213 ng

**Q.** What about the concentration at 7 d ([3]; sheep, 3.5 μg/mm^2 of balloon surface, 7 d, LT Nasal Tx 3 (anterior and inferior nasal cavity), DCB 12 × 30, 8 atm, read-out: Conc. (paclitaxel in nasal tissue)) of the same molecule?
**A.** 11.4 ng/g

**Q.** What about the concentration at 28 d ([3]; sheep, nasal tissue, left superior nasal cavity (LT Nasal Tx 1), 3.5 μg/mm^2 of balloon surface, 28 d, LT Nasal Tx 1 (superior nasal cavity), DCB 8 × 30, read-out: Conc. (paclitaxel in nasal tissue)) of the same molecule?
**A.** 0.962 ng/g

**Q.** And the concentration at 28 d ([3]; sheep, nasal tissue, right lateral nasal cavity (RT Nasal Tx 2), 3.5 μg/mm^2 of balloon surface, 28 d, RT Nasal Tx 2 (lateral nasal cavity), DCB 8 × 30, read-out: Conc. (paclitaxel in nasal tissue))?
**A.** 0.469 ng/g

**Q.** And the concentration at 7 d ([3]; sheep, nasal tissue, right superior nasal cavity (RT Nasal Tx 1), 3.5 μg/mm^2 of balloon surface, 7 d, RT Nasal Tx 1 (superior nasal cavity), DCB 6 × 30, 6 atm, read-out: Conc. (paclitaxel in nasal tissue))?
**A.** 0.448 ng/g

**Q.** And the concentration at 14 d ([3]; sheep, nasal tissue, right superior nasal cavity (RT Nasal Tx 1), 3.5 μg/mm^2 of balloon surface, 14 d, RT Nasal Tx 1 (superior nasal cavity), DCB 10 × 30, read-out: Conc. (paclitaxel in nasal tissue))?
**A.** 11.2 ng/g
